For 26 molecules, cytotoxicity call and growth inhibition call results are on record in the antibiotic and cytotoxicity screens of Wong et al. (2023).

One assay has as its system HSkMC. Description: cytotoxicity call (relative viability < 0.9). Particulars: 10 µM.
Another assay has as its system HepG2. Kind of assay: cytotoxicity call (relative viability < 0.9). Particulars: 10 µM.
Another assay has as its system S. aureus RN4220. Description: growth inhibition call (relative growth <= 0.2). Particulars: 50 µM.

Molecules are shown by their SMILES. Some of the results follow.

For `C[C@H]1CCCCO[C@@H](CN(C)Cc2ccccc2)[C@@H](C)CN([C@@H](C)CO)C(=O)c2cc(NC(=O)Nc3ccc4c(c3)OCO4)ccc2O1`, the cytotoxicity call with HSkMC and in the assay with HepG2 was “inactive” each time. The growth inhibition call in the assay on S. aureus RN4220 was “inactive”.

With `CCCN(C)C[C@@H]1OCCCC[C@H](C)Oc2ccc(NC(=O)CCC(F)(F)F)cc2C(=O)N([C@H](C)CO)C[C@@H]1C`, the cytotoxicity call in the assay with HSkMC and in the assay on HepG2 was “inactive” each time. For the same molecule, in the assay on S. aureus RN4220, the growth inhibition call was “inactive”.

Take `CCNc1nc(SCC(N)=O)nc(N2CCOCC2)n1`: the cytotoxicity call in the assay on HSkMC and with HepG2 was “inactive” in each case. Moreover, the growth inhibition call with S. aureus RN4220 was “inactive”.

For the molecule `C[C@H](CO)N1C[C@H](C)[C@@H](CN(C)C(=O)Nc2cccc3ccccc23)OCCCC[C@H](C)Oc2ccc(NS(=O)(=O)c3cccs3)cc2C1=O`, the cytotoxicity call in the assay with HSkMC and with HepG2 was “active” throughout. Also, the growth inhibition call in the assay with S. aureus RN4220 is “inactive”.

For the molecule `CN(C)CC(=O)N1CC(=O)N2[C@H](C1)[C@H](c1ccc(C#Cc3cccnc3)cc1)[C@@H]2CO`, the cytotoxicity call in the assay on HSkMC and with HepG2 was “inactive” in each case. Also, the growth inhibition call in the assay on S. aureus RN4220 is “inactive”.

For the molecule `CC(C)NC(=O)Nc1ccc2c(c1)C(=O)N([C@@H](C)CO)C[C@H](C)[C@@H](CN(C)Cc1ccc(C(F)(F)F)cc1)OCCCC[C@H](C)O2`, in the assay on HSkMC, the cytotoxicity call was “inactive”. Further, the cytotoxicity call with HepG2 was “active”. The growth inhibition call in the assay on S. aureus RN4220 is “inactive”.

`C[C@H]1CN([C@@H](C)CO)C(=O)c2cccc(NC(=O)c3nc4ccccc4s3)c2O[C@@H]1CN(C)S(=O)(=O)c1cn(C)cn1`: the cytotoxicity call with HSkMC and in the assay on HepG2 was “inactive” throughout. Also, the growth inhibition call in the assay with S. aureus RN4220 was “inactive”.

As to `Cc1ccc(S(=O)(=O)N(C)C[C@H]2Oc3ccc(NC(=O)C4CC4)cc3CC(=O)N([C@H](C)CO)C[C@@H]2C)cc1`, the cytotoxicity call in the assay on HSkMC and in the assay with HepG2 was “inactive” in each case. In addition, in the assay on S. aureus RN4220, the growth inhibition call was “inactive”.

As to `CC(=O)c1cccc(S(=O)(=O)N2[C@@H]3CC[C@@H](C3)[C@H]2c2nc3cccc(OCc4ccc(F)cc4)c3[nH]2)c1`, the cytotoxicity call with HSkMC and in the assay with HepG2 was “inactive” each time. For the same molecule, in the assay with S. aureus RN4220, the growth inhibition call is “inactive”.

For the molecule `C[C@@H]1CN([C@H](C)CO)C(=O)c2cc(NC(=O)NC3CCCCC3)ccc2O[C@H]1CN(C)S(=O)(=O)c1cn(C)cn1`, the cytotoxicity call in the assay with HSkMC and in the assay with HepG2 was “inactive” in each case. The growth inhibition call in the assay with S. aureus RN4220 is “inactive”.

Take `C[C@@H]1CN([C@H](C)CO)C(=O)c2cc(NC(=O)Cn3cnnn3)ccc2O[C@@H]1CN(C)C(=O)Nc1cccc2ccccc12`: the cytotoxicity call in the assay on HSkMC and in the assay with HepG2 was “inactive” throughout. The growth inhibition call with S. aureus RN4220 was “inactive”.

For `COc1ccc(NC(=O)Nc2ccc3c(c2)[C@@H]2C[C@H](CC(=O)NCc4ccccn4)O[C@@H](CO)[C@@H]2O3)cc1`, the cytotoxicity call with HSkMC and in the assay with HepG2 was “inactive” in each case. In the assay on S. aureus RN4220, the growth inhibition call is “inactive”.

For `COc1ccccc1CNC(=O)C[C@@H]1CC[C@@H]2[C@H](COC[C@@H](O)CN2C(=O)Nc2ccc(Cl)cc2)O1`, the cytotoxicity call in the assay on HSkMC and in the assay with HepG2 was “inactive” in each case. Moreover, the growth inhibition call with S. aureus RN4220 is “active”.

As to `Cc1ccc(S(=O)(=O)N(C)C[C@@H]2Oc3ccc(NS(=O)(=O)c4c(C)noc4C)cc3CC(=O)N([C@@H](C)CO)C[C@H]2C)cc1`, the cytotoxicity call in the assay on HSkMC and with HepG2 was “inactive” each time. Also, in the assay with S. aureus RN4220, the growth inhibition call was “inactive”.

Turning to `Cc1ccc(S(=O)(=O)Nc2ccc3c(c2)C(=O)N([C@H](C)CO)C[C@@H](C)[C@H](CN(C)S(=O)(=O)c2ccccc2)O3)cc1`, the cytotoxicity call in the assay with HSkMC and in the assay on HepG2 was “inactive” each time. For the same molecule, the growth inhibition call in the assay on S. aureus RN4220 was “inactive”.

In the case of `O=C(C[C@@H]1C=C[C@H](NC(=O)c2cccc(F)c2)[C@@H](CO)O1)NCCN1CCCC1`, the cytotoxicity call with HSkMC and with HepG2 was “inactive” in each case. Further, in the assay with S. aureus RN4220, the growth inhibition call was “inactive”.

With `O=c1[nH]c(=S)nc2[nH][nH]cc1-2`, the cytotoxicity call in the assay with HSkMC and in the assay with HepG2 was “inactive” each time. Besides, the growth inhibition call in the assay with S. aureus RN4220 is “inactive”.

As for `CC1(C)OC(=O)C2(C(=O)O1)[C@@H](c1ccc(-c3ccc(-c4ccc(O)cc4)cc3)cc1)CC(=O)C[C@H]2c1ccccc1`, the cytotoxicity call in the assay with HSkMC and in the assay with HepG2 was “inactive” throughout. Moreover, the growth inhibition call in the assay on S. aureus RN4220 is “inactive”.

In the case of `CC(C)(C)N.CCCC(NC(C)C(=O)N1C(C(=O)O)CC2CCCCC21)C(=O)OCC` (stereo not drawn), the cytotoxicity call in the assay with HSkMC and with HepG2 was “inactive” in each case. In addition, in the assay on S. aureus RN4220, the growth inhibition call is “inactive”.

For the molecule `O=C(O)[C@H]1CCCCN1`, the cytotoxicity call with HSkMC and with HepG2 was “inactive” each time. The growth inhibition call in the assay on S. aureus RN4220 was “inactive”.

In the case of `C[C@H]1CN([C@@H](C)CO)C(=O)c2cc(NC(=O)Nc3cccc4ccccc34)ccc2O[C@@H]1CN(C)Cc1ccc(C(=O)O)cc1`, the cytotoxicity call with HSkMC and with HepG2 was “inactive” each time. Also, in the assay with S. aureus RN4220, the growth inhibition call is “inactive”.

In the case of `COc1ccc2c3c([nH]c2c1)[C@@H](CO)N(C[C@]13CCN(CC1)C(=O)NC(C)C)C(=O)CN1CCOCC1`, the cytotoxicity call in the assay with HSkMC and in the assay on HepG2 was “inactive” throughout. Besides, in the assay on S. aureus RN4220, the growth inhibition call is “inactive”.

As to `COc1ccccc1S(=O)(=O)N(C)C[C@@H]1OCc2cnnn2CCCC(=O)N([C@H](C)CO)C[C@H]1C`, the cytotoxicity call with HSkMC and in the assay with HepG2 was “inactive” throughout. Besides, in the assay with S. aureus RN4220, the growth inhibition call was “inactive”.

With `C[C@@H]1CCCCO[C@H](CN(C)S(C)(=O)=O)[C@@H](C)CN([C@H](C)CO)C(=O)c2cc(NS(C)(=O)=O)ccc2O1`, the cytotoxicity call in the assay with HSkMC and with HepG2 was “inactive” in each case. Besides, the growth inhibition call in the assay on S. aureus RN4220 was “inactive”.

As to `C[C@H]1CN([C@@H](C)CO)C(=O)c2cc(NC(=O)Nc3cccc4ccccc34)ccc2O[C@H]1CN(C)C(=O)Nc1cccc2ccccc12`, the cytotoxicity call in the assay with HSkMC and in the assay with HepG2 was “inactive” each time. Also, the growth inhibition call in the assay on S. aureus RN4220 is “inactive”.

Regarding `CCCN(C)C[C@H]1OCCCC[C@@H](C)Oc2ccc(NS(C)(=O)=O)cc2C(=O)N([C@@H](C)CO)C[C@H]1C`, the cytotoxicity call in the assay on HSkMC (human skeletal muscle cells) and in the assay on HepG2 was “inactive” each time. In addition, the growth inhibition call in the assay on S. aureus RN4220 was “inactive”.
